# In all, about 16,000 sequences were measured (“Z-score”: median about -0.37, highest 2% from about 3.2 on). This is one part of the list.
# Test system: RBM10 RRM1-ZnF (GST-tagged construct)
# Test: RNAcompete 7-mer binding Z-score; higher = stronger binding preference
# Summary of the method: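 GST-tagged RBM10 constructs (20 pmol) and a designed pool of 241 399 RNAs up to 41 nt (1.5 nmol) were allowed to bind for 30 min at 4°C in 1 ml Hepes pH 7.8 buffer with glutathione Sepharose beads. After four 2-min washes at 4°C, bound RNA was identified by microarray hybridisation. Enrichment was scored per heptamer motif as a one-sided Z-score across the probes containing it.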
row,Sequence,RNAcompete 7-mer binding Z-score
1,ACGUUAC,-0.324
2,UAUUUAA,-0.607
3,CGGUACG,0.508
4,UUGCACU,-0.639
5,CUGAGAA,-0.412
6,CUUCUAC,-0.841
7,GAGGAAU,1.58
8,UGGACCA,-0.0512
9,CUAAAGU,-0.539
10,GGCCGGA,0.693
11,GGAGGCA,2.31
12,GGGUCUC,0.969
13,AAUGGAC,2.03
14,UAGGUCA,0.335
15,GGUCGCA,0.358
16,AGACUCU,-0.941
17,CUCGGUC,-0.558
18,GUUACGA,0.0983
19,ACGUCCU,-0.779
20,AUAAAGC,-0.48
21,UGGUUAU,0.735
22,CACGAGC,-0.106
23,CGACCGA,-0.519

row,Sequence,RNAcompete 7-mer binding Z-score
1,AAAGUAG,0.491
2,CCGGUGC,-0.236
3,CAAUAGC,-0.451
4,UUCGCCA,-0.591
5,CAAUCAC,-0.646
6,GCCGUCG,-0.0739
7,ACUUCGC,-0.782
8,CAACCAA,-0.542
9,UGCACCA,-0.545
10,CGCGCCA,-0.337
11,CUGUCUG,-0.766
12,GUUUUAC,-0.591
13,CGGUUAG,0.881
14,AGAGCCG,-0.714
15,CCUAGGC,-0.558
16,GUUCUUA,-0.785
17,AUCAGAC,-0.337
18,CACAGCG,-0.262
19,UGGCUUA,-0.337
20,CGGUUGU,0.313
21,GAGACCC,-0.435
22,CACGAUG,-0.178
23,CCCGCAU,-0.516

row,Sequence,RNAcompete 7-mer binding Z-score
1,UCAUAAU,-0.876
2,CGCCGGG,0.134
3,UCUAUAG,-0.467
4,UCGCUUU,-0.873
5,CUCCCAU,-0.701
6,AGCUUAG,-0.288
7,GACGUGU,0.293
8,UCAGGAA,0.738
9,UCGGCCA,-0.558
10,CGAGCAU,-0.337
11,UGGAACG,2.13
12,AAAAUCG,-0.35
13,CUGCUAA,-0.789
14,AAAUUAC,-0.665
15,AUUUAAA,-0.633
16,GGUUGCC,0.55
17,CCCGACU,-0.6
18,ACCAAAU,-0.552
19,UGGAUGU,1.68
20,UGGUUGU,1.67
21,UUAAACA,-0.529
22,GGGCUAU,0.849
23,AAUUCUC,-0.594

row,Sequence,RNAcompete 7-mer binding Z-score
1,CCAGAGA,-0.0447
2,ACUUAAU,-0.798
3,GCAGCCU,-0.529
4,AUAUUUU,-0.932
5,GCCCUGC,-0.513
6,GUCAGGA,1.01
7,AUGACAG,0.413
8,ACUAGAG,-0.0382
9,CUAUAAC,-0.811
10,ACGGAGG,2.5
11,GGAGCCA,0.475
12,AUGGACA,1.95
13,GCCAUUC,-0.912
14,CUCAGAG,-0.23
15,GCAGCUG,-0.0512
16,CCUGGAC,-0.347
17,AUCUCAU,-0.841
18,GUGUUGC,0.264
19,AUGGCGU,0.462
20,GUCGGAU,0.524
21,CUGGUAA,0.186
22,UUUUAUA,-0.707
23,ACCAGCA,-0.591

row,Sequence,RNAcompete 7-mer binding Z-score
1,CUCCAGG,-0.11
2,GGCAGUU,0.082
3,GGGGGUU,3.67
4,AGCGGUA,1.3
5,AAUAAAU,-0.402
6,CUUUCUG,-0.834
7,GGGGGCA,2.92
8,UGCAACU,-0.422
9,UGACUCU,-0.568
10,GGACUAA,0.371
11,GGUACCG,0.452
12,GACUCCC,-0.574
13,UGGUACC,0.407
14,AUAAGAC,-0.207
15,AGCCUUA,-0.789
16,GGAUCCU,-0.266
17,GUGAUGG,2.71
18,CUCCAUG,-0.451
19,CUUCAGG,-0.236
20,UAUAGUU,-0.223
21,CUCCUAC,-0.711
22,AAAUUCU,-0.633
23,UGCGAGA,0.121

row,Sequence,RNAcompete 7-mer binding Z-score
1,UCGCCAA,-0.629
2,UUCGGCC,-0.789
3,AACUUCC,-0.919
4,GCGAACU,-0.48
5,GAGAGCG,1.28
6,UGUAGCU,-0.301
7,UAUUGAC,-0.737
8,CUGCCGU,-0.659
9,UAGGAAC,1.32
10,UGGCAUU,-0.223
11,UCCCACC,-0.249
12,CGAAACU,-0.597
13,UCUCAAG,-0.532
14,UUGGAGU,1.4
15,CUCUUUC,-0.857
16,ACGCAAU,-0.474
17,CUUACGG,-0.178
18,UGGUAUG,1.71
19,AUCUCAG,-0.435
20,CGGAAAA,0.654
21,ACGAUGU,-0.035
22,CGCCUCC,-0.545
23,GGAAAGA,2.41

row,Sequence,RNAcompete 7-mer binding Z-score
1,UGCUAAC,-0.584
2,UUAGACC,-0.649
3,AAGUAGC,-0.0512
4,UCUAUAA,-0.681
5,GCGGUGA,1.2
6,AUGAGCG,0.842
7,AUUACGU,-0.415
8,ACUUAAA,-0.636
9,GCAGAUC,-0.129
10,AUCGAAA,-0.37
11,AUAAUGC,-0.623
12,GUUCCUC,-0.698
13,GCGUGAC,-0.0999
14,CCAUCGA,-0.597
15,AGAAAAU,-0.0447
16,UAUCAUG,-0.357
17,GAGACAG,0.901
18,CAUUCAU,-0.756
19,UGUUCUA,-0.756
20,GUGUGUA,0.81
21,UGGCUUU,-0.522
22,AGGUGUA,1.74
23,GUGGACC,0.82

row,Sequence,RNAcompete 7-mer binding Z-score
1,GACAGUC,-0.574
2,AGGGCGC,1.01
3,CUAACCG,-0.837
4,UUAUGAC,-0.383
5,AAGCACU,-0.47
6,AGAAUGU,0.235
7,AGUGUAG,1.34
8,GCGGACG,1.28
9,AUUUUCG,-0.87
10,UACGCGA,-0.126
11,UGCAACC,-0.62
12,AAUGAGG,1.71
13,CCCUAGG,0.365
14,CACUCCA,-0.753
15,CAAUAUA,-0.617
16,UAUCAUC,-0.675
17,GGUGCAC,0.813
18,GCUGUGU,-0.347
19,AUUUGAU,-0.363
20,AGCCCGC,-0.181
21,UACCGGU,-0.285
22,UACGUGA,-0.188
23,AAGUUGA,0.634

# From the supplement of paper PMC5499739
